{"source": "the supplement of paper PMC3334620", "note": "The full ranking holds about 33,000 sequences; the median of “E-score (-0.5 to 0.5)” is about -0.01, and the highest 2% start at about 0.26. Some of the results follow.", "data": [{"molecular_target": "Ste12 (UniProt P13574)", "assay": "PBM E-score (8-mer binding enrichment) (E-score (-0.5 to 0.5)); higher = stronger / more preferred TF binding; most listed sequences are background and not binding sites", "conditions": "protein concentration: 200 nM; construct: GST-DNA-binding domain", "how_it_was_run": "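Detection of bound protein used fluorescent anti-GST, with scans normalised by masliner. The proteins were GST-tagged yeast transcription factors applied at about 100-200 nM to universal all-10-mer Agilent arrays made double-stranded by primer extension. Each ungapped eight-base word, pooled with its reverse complement, was scored with an E-score from the Universal PBM Analysis Suite.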", "values": [{"sequence": "AGTAGCAA", "PBM E-score": 0.00033}, {"sequence": "CAAAACCC", "PBM E-score": 0.243}, {"sequence": "AGCAGCGC", "PBM E-score": 0.0541}, {"sequence": "GGTGAGTA", "PBM E-score": 0.00046}, {"sequence": "AATTCCGA", "PBM E-score": 0.0921}, {"sequence": "AGATCTGG", "PBM E-score": -0.12}, {"sequence": "GGCAACAA", "PBM E-score": 0.0301}, {"sequence": "AGAGATTC", "PBM E-score": 0.0905}, {"sequence": "ACACGAAA", "PBM E-score": 0.212}, {"sequence": "GTCAATTA", "PBM E-score": -0.119}, {"sequence": "ACGGTGCG", "PBM E-score": 0.0256}, {"sequence": "TAGTTATA", "PBM E-score": 0.0821}, {"sequence": "GACAATGC", "PBM E-score": -0.00301}, {"sequence": "GAGATCCA", "PBM E-score": -0.113}, {"sequence": "CGCGATCC", "PBM E-score": -0.116}, {"sequence": "CTTACAAA", "PBM E-score": 0.143}, {"sequence": "ACCGCCGA", "PBM E-score": 0.0296}, {"sequence": "ATTCTGAG", "PBM E-score": 0.0929}, {"sequence": "TATTGTCA", "PBM E-score": 0.0537}, {"sequence": "ATTTCACA", "PBM E-score": 0.205}, {"sequence": "ACATGCCT", "PBM E-score": -0.152}, {"sequence": "CATCTTCG", "PBM E-score": -0.0075}, {"sequence": "GTCACTGA", "PBM E-score": 0.0514}, {"sequence": "AACTTGGC", "PBM E-score": -0.122}, {"sequence": "CTAACTAA", "PBM E-score": 0.0174}, {"sequence": "AGCCTGAA", "PBM E-score": 0.112}, {"sequence": "ATGCTCGC", "PBM E-score": -0.0993}, {"sequence": "AAATCCCC", "PBM E-score": 0.0647}, {"sequence": "ACGTCTAC", "PBM E-score": -0.118}, {"sequence": "CCAGAGCG", "PBM E-score": -0.1}, {"sequence": "GCGCTAAC", "PBM E-score": 0.0237}, {"sequence": "CCTGGACC", "PBM E-score": -0.0982}, {"sequence": "ACCCCACG", "PBM E-score": -0.159}, {"sequence": "ATCGGAAC", "PBM E-score": 0.0411}, {"sequence": "CAGGCAAA", "PBM E-score": 0.0381}, {"sequence": "AAGTCGCC", "PBM E-score": -0.147}, {"sequence": "GTGGGCAA", "PBM E-score": -0.097}, {"sequence": "AGTCCTCG", "PBM E-score": -0.0399}, {"sequence": "AGGCCTGC", "PBM E-score": -0.246}, {"sequence": "GGAGCGGA", "PBM E-score": -0.151}, {"sequence": "CGGGAACG", "PBM E-score": -0.063}, {"sequence": "ACCCCGAG", "PBM E-score": -0.0693}, {"sequence": "ATCACACA", "PBM E-score": -0.0458}, {"sequence": "CATCGACA", "PBM E-score": -0.118}, {"sequence": "AAGTGTGG", "PBM E-score": 0.00615}, {"sequence": "CATGAATA", "PBM E-score": 0.0352}, {"sequence": "AACGCCTA", "PBM E-score": 0.118}, {"sequence": "ACACACTC", "PBM E-score": 0.0305}, {"sequence": "GACGCATA", "PBM E-score": 0.15}, {"sequence": "ACTGACGG", "PBM E-score": -0.128}, {"sequence": "ACTCCCTC", "PBM E-score": -0.153}, {"sequence": "ACCATTGG", "PBM E-score": -0.0456}, {"sequence": "CCGTCGGC", "PBM E-score": -0.0522}, {"sequence": "ACCCAAGA", "PBM E-score": 0.00479}, {"sequence": "AGCGAGCC", "PBM E-score": -0.0362}, {"sequence": "AGAGAGTC", "PBM E-score": -0.191}, {"sequence": "GACGTACA", "PBM E-score": -0.201}, {"sequence": "GTTTCAGA", "PBM E-score": 0.484}, {"sequence": "AACCGCCA", "PBM E-score": 0.0588}, {"sequence": "CCAGTCAC", "PBM E-score": -0.00691}, {"sequence": "CTGCGGCA", "PBM E-score": -0.028}, {"sequence": "CGTTACCC", "PBM E-score": -0.051}, {"sequence": "GAAATAGC", "PBM E-score": 0.0443}, {"sequence": "CAACCCGG", "PBM E-score": -0.135}, {"sequence": "TGATCAAA", "PBM E-score": 0.156}, {"sequence": "ATAGTAAA", "PBM E-score": 0.169}, {"sequence": "CTCAGAAG", "PBM E-score": -0.0398}, {"sequence": "ACGGGTGG", "PBM E-score": 0.172}, {"sequence": "CATAACAA", "PBM E-score": 0.192}, {"sequence": "CCACCTAA", "PBM E-score": 0.163}, {"sequence": "AGACCGCT", "PBM E-score": -0.0963}, {"sequence": "ATGCTAAC", "PBM E-score": -0.154}, {"sequence": "ACTCCGAC", "PBM E-score": 0.118}, {"sequence": "AGCTCTGG", "PBM E-score": -0.169}, {"sequence": "CGCGCACA", "PBM E-score": 0.125}, {"sequence": "AAAATGTC", "PBM E-score": 0.188}, {"sequence": "CATCGAGA", "PBM E-score": -0.0275}, {"sequence": "CAATGGTG", "PBM E-score": -0.16}, {"sequence": "ATGGTTCC", "PBM E-score": -0.0349}, {"sequence": "GTGGGAGA", "PBM E-score": -0.164}, {"sequence": "CGACCGAG", "PBM E-score": -0.113}, {"sequence": "CAACTTGC", "PBM E-score": -0.0882}, {"sequence": "AAAATTGC", "PBM E-score": 0.141}, {"sequence": "CTTCACCC", "PBM E-score": 0.0896}, {"sequence": "TACAAGGA", "PBM E-score": 0.168}, {"sequence": "GGCTCCTA", "PBM E-score": -0.212}, {"sequence": "AAATTCTT", "PBM E-score": 0.111}, {"sequence": "TATCTGCA", "PBM E-score": -0.126}, {"sequence": "ACCTCCCG", "PBM E-score": 0.0252}, {"sequence": "AATCCGGT", "PBM E-score": 0.148}, {"sequence": "CAGGGGAC", "PBM E-score": -0.162}, {"sequence": "CGATGGCG", "PBM E-score": -0.121}, {"sequence": "AAGCCGGA", "PBM E-score": 0.108}, {"sequence": "AACGTCGC", "PBM E-score": 0.00995}, {"sequence": "CTTGAACA", "PBM E-score": 0.112}, {"sequence": "CAAGAGCC", "PBM E-score": -0.00692}, {"sequence": "TTGAGAAA", "PBM E-score": 0.231}, {"sequence": "GCGGACCA", "PBM E-score": 0.0751}, {"sequence": "ATGTAATA", "PBM E-score": 0.217}, {"sequence": "CACTGGGC", "PBM E-score": -0.188}, {"sequence": "GCTAATCC", "PBM E-score": 0.0211}, {"sequence": "CAAGATCG", "PBM E-score": -0.0544}, {"sequence": "CTGTGGAA", "PBM E-score": 0.0384}, {"sequence": "CTGTAAGC", "PBM E-score": -0.134}, {"sequence": "GGTGCATA", "PBM E-score": 0.0482}, {"sequence": "AAACAATA", "PBM E-score": 0.274}, {"sequence": "GTCTCGAA", "PBM E-score": 0.13}, {"sequence": "AGTCTCTC", "PBM E-score": -0.145}, {"sequence": "ACGCTGCC", "PBM E-score": -0.108}, {"sequence": "ATTGGCAG", "PBM E-score": -0.0606}, {"sequence": "CAGCAAAG", "PBM E-score": 0.0508}, {"sequence": "TATCTTGA", "PBM E-score": 0.0383}, {"sequence": "TGCGCTAA", "PBM E-score": 0.224}, {"sequence": "GCCGTTCC", "PBM E-score": 0.053}, {"sequence": "GACTAGAC", "PBM E-score": -0.247}, {"sequence": "CAAACACG", "PBM E-score": 0.17}, {"sequence": "CAGCCCGC", "PBM E-score": -0.108}, {"sequence": "GAAACCAC", "PBM E-score": 0.164}, {"sequence": "ACGTGCAA", "PBM E-score": -0.102}, {"sequence": "GTTACGAA", "PBM E-score": 0.0523}, {"sequence": "CACACCGG", "PBM E-score": 0.0655}, {"sequence": "CACACGCA", "PBM E-score": 0.0544}, {"sequence": "CCTGGTAG", "PBM E-score": -0.00862}, {"sequence": "CCTTATAC", "PBM E-score": 0.00361}, {"sequence": "CAGTCACG", "PBM E-score": -0.146}, {"sequence": "CCGGTGCG", "PBM E-score": 0.109}, {"sequence": "CAGTGGTC", "PBM E-score": -0.231}, {"sequence": "GGTCCTGA", "PBM E-score": -0.163}, {"sequence": "GGTAACAC", "PBM E-score": 0.0298}, {"sequence": "CCCGAACC", "PBM E-score": 0.0917}, {"sequence": "CAAACCAG", "PBM E-score": 0.106}, {"sequence": "CCTAAGCC", "PBM E-score": -0.145}, {"sequence": "ATATACCG", "PBM E-score": 0.123}, {"sequence": "CGCAGCTA", "PBM E-score": -0.133}, {"sequence": "AGTACACC", "PBM E-score": -0.00575}, {"sequence": "TAATGCGA", "PBM E-score": 0.0398}, {"sequence": "CTTTCACC", "PBM E-score": 0.0723}, {"sequence": "ACTCCACT", "PBM E-score": 0.025}, {"sequence": "CTGCCAGA", "PBM E-score": -0.15}, {"sequence": "ACAGCTTG", "PBM E-score": -0.0148}, {"sequence": "AATTTTCA", "PBM E-score": 0.165}, {"sequence": "GACACTCA", "PBM E-score": -0.109}, {"sequence": "CCACTCTA", "PBM E-score": -0.0143}, {"sequence": "ACCGTCCG", "PBM E-score": -0.025}, {"sequence": "AAATATTT", "PBM E-score": 0.0442}, {"sequence": "CTGCTGGC", "PBM E-score": -0.245}, {"sequence": "ACATCTCG", "PBM E-score": -0.06}, {"sequence": "AGGCATTC", "PBM E-score": -0.075}, {"sequence": "AAGGATGC", "PBM E-score": -0.188}, {"sequence": "CCTGCTAG", "PBM E-score": -0.17}, {"sequence": "AAGAATCC", "PBM E-score": 0.151}, {"sequence": "CCATGCGA", "PBM E-score": 0.0417}, {"sequence": "CCCGCCCC", "PBM E-score": 0.32}, {"sequence": "ATCACTAA", "PBM E-score": 0.00159}, {"sequence": "AATGAGTG", "PBM E-score": 0.0431}, {"sequence": "ATGCGGTC", "PBM E-score": 0.0847}, {"sequence": "CTGATCGC", "PBM E-score": -0.184}, {"sequence": "TAATATAA", "PBM E-score": 0.287}, {"sequence": "GAAGCGCC", "PBM E-score": 0.177}, {"sequence": "TAGCTTAA", "PBM E-score": -0.0132}, {"sequence": "ACTATGCA", "PBM E-score": -0.018}, {"sequence": "GCTGACTA", "PBM E-score": -0.174}, {"sequence": "GACGCAAA", "PBM E-score": 0.0718}, {"sequence": "ACGCACCG", "PBM E-score": 0.0733}, {"sequence": "CGTTGCGA", "PBM E-score": 0.00386}, {"sequence": "CTACTGAG", "PBM E-score": -0.123}, {"sequence": "TCCAAAGA", "PBM E-score": 0.0392}, {"sequence": "CCTCAATA", "PBM E-score": -0.103}, {"sequence": "ATTACTGA", "PBM E-score": 0.0666}, {"sequence": "GCGCTGAA", "PBM E-score": -0.0789}, {"sequence": "AAGAAAAA", "PBM E-score": 0.158}, {"sequence": "ATGACCTG", "PBM E-score": 0.115}]}]}
